{"source": "a collection of fitness landscapes (doi:10.1016/j.celrep.2020.107928)", "parents": {"B1": {"name": "Caulobacter ParB omega fusion; a variant is named by its letters at X, in order, B8GW30 (parent)", "chain": "MESVVVGEPGMSEGRRGLGRGLSALLGEVDAAPAQAPGEQLGGSREAPIEILQRNPDQPRRTFREEDLEDLSNSIREKGVLQPILVRPSPDTAGEYQIVAGERAWRAAQRAGLKTVPIMVRELDDLAVLEIGIIENVQRADLNVLEEALSYKVLMEKFERTQENIAQTIGKSXSHVANXMRLLXLPDEVQSYLVSGELTAXHARAIAAAADPVALAKQIIEGGLSVRETEALARKAPNLSAGKSKGGRPPRVKDTDTQALESDLSSVLGLDVSIDHRGSTGTLTITYATLEQLDDLCNRLTRGI"}}, "note": "Whole data set: some 81,000 sequences, median “one-hybrid fitness for binding parS DNA” near -0.17, cut for the highest 2% near 0.51. Some of the results follow.", "data": [{"variants_of": "B1", "experiment": "one-hybrid fitness for binding parS DNA (scaled: cognate 1, non-cognate 0); higher = stronger binding", "settings": "with parS DNA site", "summary_of_the_method": "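Fitness here means the log change in variant-to-wild-type read ratio between plasmids sequenced before and after selection. That scale was set so cognate equals 1 and non-cognate equals 0. The selection was a bacterial one-hybrid screen of Caulobacter ParB libraries, four specificity codons randomised, in E. coli USO carrying a HIS3 reporter with the site 19 bp from the promoter, grown 48 hours at 37°C on M9-minus-histidine with 0.1 mM IPTG and 5 mM 3-AT.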", "values": [{"variant": "PPHT", "one-hybrid fitness for binding parS DNA": "≤ 0.2"}, {"variant": "QRAA", "one-hybrid fitness for binding parS DNA": "≤ 0.2"}, {"variant": "QYWV", "one-hybrid fitness for binding parS DNA": "≤ 0.2"}, {"variant": "YMDR", "one-hybrid fitness for binding parS DNA": "≤ 0.2"}, {"variant": "PPRE", "one-hybrid fitness for binding parS DNA": "≤ 0.2"}, {"variant": "ESKT", "one-hybrid fitness for binding parS DNA": "≤ 0.2"}, {"variant": "YLMR", "one-hybrid fitness for binding parS DNA": "≤ 0.2"}, {"variant": "AVYK", "one-hybrid fitness for binding parS DNA": "≤ 0.2"}, {"variant": "AQLC", "one-hybrid fitness for binding parS DNA": "≤ 0.2"}, {"variant": "SPRG", "one-hybrid fitness for binding parS DNA": "≤ 0.2"}, {"variant": "RANN", "one-hybrid fitness for binding parS DNA": 0.434}, {"variant": "VVKM", "one-hybrid fitness for binding parS DNA": "≤ 0.2"}, {"variant": "WNAS", "one-hybrid fitness for binding parS DNA": "≤ 0.2"}, {"variant": "TPVY", "one-hybrid fitness for binding parS DNA": "≤ 0.2"}, {"variant": "ADES", "one-hybrid fitness for binding parS DNA": "≤ 0.2"}, {"variant": "KVDS", "one-hybrid fitness for binding parS DNA": "≤ 0.2"}, {"variant": "PPIM", "one-hybrid fitness for binding parS DNA": "≤ 0.2"}, {"variant": "PAQL", "one-hybrid fitness for binding parS DNA": "≤ 0.2"}, {"variant": "MVHM", "one-hybrid fitness for binding parS DNA": "≤ 0.2"}, {"variant": "NGEW", "one-hybrid fitness for binding parS DNA": "≤ 0.2"}, {"variant": "LQIV", "one-hybrid fitness for binding parS DNA": "≤ 0.2"}, {"variant": "DTLD", "one-hybrid fitness for binding parS DNA": "≤ 0.2"}, {"variant": "RMLF", "one-hybrid fitness for binding parS DNA": 0.238}, {"variant": "IAAA", "one-hybrid fitness for binding parS DNA": "≤ 0.2"}, {"variant": "VHSG", "one-hybrid fitness for binding parS DNA": "≤ 0.2"}, {"variant": "GAHD", "one-hybrid fitness for binding parS DNA": "≤ 0.2"}, {"variant": "LQCL", "one-hybrid fitness for binding parS DNA": "≤ 0.2"}, {"variant": "KIRR", "one-hybrid fitness for binding parS DNA": "≤ 0.2"}, {"variant": "QKLH", "one-hybrid fitness for binding parS DNA": "≤ 0.2"}, {"variant": "QNWE", "one-hybrid fitness for binding parS DNA": "≤ 0.2"}, {"variant": "RGKL", "one-hybrid fitness for binding parS DNA": "≤ 0.2"}, {"variant": "SFRE", "one-hybrid fitness for binding parS DNA": "≤ 0.2"}, {"variant": "PCQG", "one-hybrid fitness for binding parS DNA": "≤ 0.2"}, {"variant": "RAFI", "one-hybrid fitness for binding parS DNA": "≤ 0.2"}, {"variant": "QQPD", "one-hybrid fitness for binding parS DNA": "≤ 0.2"}, {"variant": "KVIA", "one-hybrid fitness for binding parS DNA": "≤ 0.2"}, {"variant": "QQNF", "one-hybrid fitness for binding parS DNA": "≤ 0.2"}, {"variant": "HFST", "one-hybrid fitness for binding parS DNA": "≤ 0.2"}, {"variant": "YPPI", "one-hybrid fitness for binding parS DNA": "≤ 0.2"}, {"variant": "HMQR", "one-hybrid fitness for binding parS DNA": "≤ 0.2"}, {"variant": "LSVC", "one-hybrid fitness for binding parS DNA": "≤ 0.2"}, {"variant": "CFNW", "one-hybrid fitness for binding parS DNA": "≤ 0.2"}, {"variant": "RVVT", "one-hybrid fitness for binding parS DNA": 0.795}, {"variant": "SMEG", "one-hybrid fitness for binding parS DNA": "≤ 0.2"}, {"variant": "HVST", "one-hybrid fitness for binding parS DNA": "≤ 0.2"}, {"variant": "PNRT", "one-hybrid fitness for binding parS DNA": "≤ 0.2"}, {"variant": "HVSS", "one-hybrid fitness for binding parS DNA": "≤ 0.2"}, {"variant": "VWFG", "one-hybrid fitness for binding parS DNA": "≤ 0.2"}, {"variant": "YMIT", "one-hybrid fitness for binding parS DNA": "≤ 0.2"}, {"variant": "INNF", "one-hybrid fitness for binding parS DNA": "≤ 0.2"}, {"variant": "CPLP", "one-hybrid fitness for binding parS DNA": "≤ 0.2"}, {"variant": "TRVS", "one-hybrid fitness for binding parS DNA": "≤ 0.2"}, {"variant": "ELTV", "one-hybrid fitness for binding parS DNA": "≤ 0.2"}, {"variant": "YSRK", "one-hybrid fitness for binding parS DNA": "≤ 0.2"}, {"variant": "RSML", "one-hybrid fitness for binding parS DNA": "≤ 0.2"}, {"variant": "CVRL", "one-hybrid fitness for binding parS DNA": "≤ 0.2"}, {"variant": "PAII", "one-hybrid fitness for binding parS DNA": "≤ 0.2"}, {"variant": "QMTM", "one-hybrid fitness for binding parS DNA": "≤ 0.2"}, {"variant": "VTEF", "one-hybrid fitness for binding parS DNA": "≤ 0.2"}, {"variant": "GLGY", "one-hybrid fitness for binding parS DNA": "≤ 0.2"}, {"variant": "LISY", "one-hybrid fitness for binding parS DNA": "≤ 0.2"}, {"variant": "APEY", "one-hybrid fitness for binding parS DNA": "≤ 0.2"}, {"variant": "QQRY", "one-hybrid fitness for binding parS DNA": "≤ 0.2"}, {"variant": "QYLK", "one-hybrid fitness for binding parS DNA": "≤ 0.2"}, {"variant": "LSSN", "one-hybrid fitness for binding parS DNA": "≤ 0.2"}, {"variant": "DSQF", "one-hybrid fitness for binding parS DNA": "≤ 0.2"}, {"variant": "STAE", "one-hybrid fitness for binding parS DNA": "≤ 0.2"}, {"variant": "HLVR", "one-hybrid fitness for binding parS DNA": "≤ 0.2"}, {"variant": "RYHL", "one-hybrid fitness for binding parS DNA": "≤ 0.2"}, {"variant": "YFNC", "one-hybrid fitness for binding parS DNA": "≤ 0.2"}, {"variant": "NFAS", "one-hybrid fitness for binding parS DNA": 0.255}, {"variant": "DPDR", "one-hybrid fitness for binding parS DNA": "≤ 0.2"}, {"variant": "LNNP", "one-hybrid fitness for binding parS DNA": "≤ 0.2"}, {"variant": "YYHM", "one-hybrid fitness for binding parS DNA": "≤ 0.2"}, {"variant": "HQCG", "one-hybrid fitness for binding parS DNA": "≤ 0.2"}, {"variant": "DFRS", "one-hybrid fitness for binding parS DNA": "≤ 0.2"}, {"variant": "TMHI", "one-hybrid fitness for binding parS DNA": "≤ 0.2"}, {"variant": "TCLW", "one-hybrid fitness for binding parS DNA": "≤ 0.2"}, {"variant": "AEKR", "one-hybrid fitness for binding parS DNA": "≤ 0.2"}, {"variant": "SWLM", "one-hybrid fitness for binding parS DNA": "≤ 0.2"}, {"variant": "NSAC", "one-hybrid fitness for binding parS DNA": "≤ 0.2"}, {"variant": "TTVQ", "one-hybrid fitness for binding parS DNA": "≤ 0.2"}, {"variant": "MVGT", "one-hybrid fitness for binding parS DNA": "≤ 0.2"}, {"variant": "AGAC", "one-hybrid fitness for binding parS DNA": "≤ 0.2"}, {"variant": "VLSK", "one-hybrid fitness for binding parS DNA": "≤ 0.2"}, {"variant": "VEGT", "one-hybrid fitness for binding parS DNA": "≤ 0.2"}, {"variant": "WMMT", "one-hybrid fitness for binding parS DNA": "≤ 0.2"}, {"variant": "GPVS", "one-hybrid fitness for binding parS DNA": "≤ 0.2"}, {"variant": "GYKD", "one-hybrid fitness for binding parS DNA": "≤ 0.2"}, {"variant": "LWIL", "one-hybrid fitness for binding parS DNA": "≤ 0.2"}, {"variant": "HTRT", "one-hybrid fitness for binding parS DNA": "≤ 0.2"}, {"variant": "FTTT", "one-hybrid fitness for binding parS DNA": "≤ 0.2"}, {"variant": "SIQS", "one-hybrid fitness for binding parS DNA": "≤ 0.2"}, {"variant": "FMKM", "one-hybrid fitness for binding parS DNA": "≤ 0.2"}, {"variant": "NWKS", "one-hybrid fitness for binding parS DNA": "≤ 0.2"}, {"variant": "DWTR", "one-hybrid fitness for binding parS DNA": "≤ 0.2"}, {"variant": "QEVN", "one-hybrid fitness for binding parS DNA": "≤ 0.2"}, {"variant": "DDQS", "one-hybrid fitness for binding parS DNA": "≤ 0.2"}, {"variant": "QWVG", "one-hybrid fitness for binding parS DNA": "≤ 0.2"}, {"variant": "PPLF", "one-hybrid fitness for binding parS DNA": "≤ 0.2"}, {"variant": "WFMS", "one-hybrid fitness for binding parS DNA": "≤ 0.2"}, {"variant": "PGVS", "one-hybrid fitness for binding parS DNA": "≤ 0.2"}, {"variant": "TSHM", "one-hybrid fitness for binding parS DNA": "≤ 0.2"}, {"variant": "EDYG", "one-hybrid fitness for binding parS DNA": "≤ 0.2"}, {"variant": "DLDT", "one-hybrid fitness for binding parS DNA": "≤ 0.2"}, {"variant": "VNVW", "one-hybrid fitness for binding parS DNA": 0.237}, {"variant": "GVCD", "one-hybrid fitness for binding parS DNA": "≤ 0.2"}, {"variant": "GICT", "one-hybrid fitness for binding parS DNA": "≤ 0.2"}, {"variant": "ASGQ", "one-hybrid fitness for binding parS DNA": "≤ 0.2"}, {"variant": "IAWS", "one-hybrid fitness for binding parS DNA": "≤ 0.2"}, {"variant": "ILTL", "one-hybrid fitness for binding parS DNA": "≤ 0.2"}, {"variant": "HIGC", "one-hybrid fitness for binding parS DNA": "≤ 0.2"}, {"variant": "TYKP", "one-hybrid fitness for binding parS DNA": "≤ 0.2"}, {"variant": "RPIG", "one-hybrid fitness for binding parS DNA": "≤ 0.2"}, {"variant": "QIKK", "one-hybrid fitness for binding parS DNA": "≤ 0.2"}, {"variant": "AVTM", "one-hybrid fitness for binding parS DNA": "≤ 0.2"}, {"variant": "YWQR", "one-hybrid fitness for binding parS DNA": "≤ 0.2"}, {"variant": "RSIT", "one-hybrid fitness for binding parS DNA": 0.628}, {"variant": "RLQK", "one-hybrid fitness for binding parS DNA": "≤ 0.2"}, {"variant": "QQKL", "one-hybrid fitness for binding parS DNA": "≤ 0.2"}, {"variant": "PIKI", "one-hybrid fitness for binding parS DNA": "≤ 0.2"}, {"variant": "SRDV", "one-hybrid fitness for binding parS DNA": "≤ 0.2"}, {"variant": "CAPR", "one-hybrid fitness for binding parS DNA": "≤ 0.2"}, {"variant": "KILN", "one-hybrid fitness for binding parS DNA": "≤ 0.2"}, {"variant": "RIPM", "one-hybrid fitness for binding parS DNA": "≤ 0.2"}, {"variant": "KQKM", "one-hybrid fitness for binding parS DNA": "≤ 0.2"}, {"variant": "QRMI", "one-hybrid fitness for binding parS DNA": "≤ 0.2"}, {"variant": "NCFR", "one-hybrid fitness for binding parS DNA": "≤ 0.2"}, {"variant": "QDFS", "one-hybrid fitness for binding parS DNA": "≤ 0.2"}, {"variant": "KQDR", "one-hybrid fitness for binding parS DNA": "≤ 0.2"}, {"variant": "SCTM", "one-hybrid fitness for binding parS DNA": "≤ 0.2"}, {"variant": "FGTY", "one-hybrid fitness for binding parS DNA": "≤ 0.2"}, {"variant": "GTHV", "one-hybrid fitness for binding parS DNA": "≤ 0.2"}, {"variant": "NGRC", "one-hybrid fitness for binding parS DNA": "≤ 0.2"}, {"variant": "LLAT", "one-hybrid fitness for binding parS DNA": "≤ 0.2"}, {"variant": "CNCG", "one-hybrid fitness for binding parS DNA": "≤ 0.2"}, {"variant": "REHV", "one-hybrid fitness for binding parS DNA": "≤ 0.2"}, {"variant": "GNAI", "one-hybrid fitness for binding parS DNA": "≤ 0.2"}, {"variant": "MKDS", "one-hybrid fitness for binding parS DNA": "≤ 0.2"}, {"variant": "PPMG", "one-hybrid fitness for binding parS DNA": "≤ 0.2"}, {"variant": "SDRQ", "one-hybrid fitness for binding parS DNA": "≤ 0.2"}, {"variant": "RFYI", "one-hybrid fitness for binding parS DNA": "≤ 0.2"}, {"variant": "LMRN", "one-hybrid fitness for binding parS DNA": "≤ 0.2"}, {"variant": "FFTF", "one-hybrid fitness for binding parS DNA": "≤ 0.2"}, {"variant": "DTKK", "one-hybrid fitness for binding parS DNA": "≤ 0.2"}, {"variant": "SPKT", "one-hybrid fitness for binding parS DNA": "≤ 0.2"}, {"variant": "TETR", "one-hybrid fitness for binding parS DNA": "≤ 0.2"}, {"variant": "DPSS", "one-hybrid fitness for binding parS DNA": "≤ 0.2"}, {"variant": "GAIG", "one-hybrid fitness for binding parS DNA": "≤ 0.2"}, {"variant": "RYLA", "one-hybrid fitness for binding parS DNA": 0.608}, {"variant": "RTTP", "one-hybrid fitness for binding parS DNA": "≤ 0.2"}, {"variant": "DFTF", "one-hybrid fitness for binding parS DNA": "≤ 0.2"}, {"variant": "IYNQ", "one-hybrid fitness for binding parS DNA": "≤ 0.2"}]}]}
